The results in this text go back to PubChem BioAssay AID1346428 (National Center for Advancing Translational Sciences (NCATS), 2018).

Values joined by “and” are separate entries in the source; they are usually repeats but may differ in a detail not shown here. Equal entries are not always repeated. Out of some 48,000 compounds screened, about 1,200 (2.5%) were called active. About 2% were inconclusive and are not listed.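 Rule for the calls: active = activation of at least 60% and not above a set upper limit (about 1 call in 100 departs from these limits); inconclusive = activation of 40% to 60%, or above that upper limit; inactive = activation under 40%.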 The list shows a part of the results.

This assay deals with Probable G-protein coupled receptor 32 (Homo sapiens) (UniProt O75388). The experiment in a line: qHTS for Agonists of Human Resolvin D1 Receptor DRV1. As to conditions: CHO-K1 GPR32 beta-arrestin PathHunter luminescence, 90 min; at 76.9 µM; stronger effect = higher value; zero percent set by DMSO-only wells. The essentials: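 Using DMSO wells as EC0, agonist-induced signal was taken as chemiluminescence from beta-Gal reconstituted upon beta-arrestin recruitment to GPR32 in CHO-K1 cells after 90 min compound treatment.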
Sequence of UniProt O75388 (O75388 whole entry, looked up): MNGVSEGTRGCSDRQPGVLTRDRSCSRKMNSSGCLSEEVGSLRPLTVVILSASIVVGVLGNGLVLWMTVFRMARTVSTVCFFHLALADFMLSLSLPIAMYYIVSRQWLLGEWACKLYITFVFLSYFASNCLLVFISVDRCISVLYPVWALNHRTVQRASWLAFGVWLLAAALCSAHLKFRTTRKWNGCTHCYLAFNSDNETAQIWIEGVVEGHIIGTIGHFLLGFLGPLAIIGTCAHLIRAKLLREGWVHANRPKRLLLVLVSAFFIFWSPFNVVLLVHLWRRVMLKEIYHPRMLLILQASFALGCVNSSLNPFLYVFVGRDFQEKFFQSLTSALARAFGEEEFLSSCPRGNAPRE
On to `CCOc1ccc(NC(c2ccc(Cl)cc2)c2nnc(-c3cccc(F)c3)o2)cc1` (stereo unspecified), for which the activation is inactive: -7.3%. Consider `Cc1ccc(CN(C(=O)COc2cccc(Cl)c2)c2ccccn2)o1`, for which the activation is inactive: 7.46%.

As for `CCCOC(=O)c1ccc(NC(=O)C2CC(=O)N(c3ccc(C)cc3)C2)cc1` (stereo unspecified), the activation was inactive: 38.7%. The result for `O=C(CSc1nccn1Cc1ccc(F)cc1)NC1CCCC1` reads inactive: -3%; that for `O=C(Nc1ccccc1F)C(c1ccccc1)N1Cc2ccccc2C1=O` (stereo unspecified), inactive: -17.1%; that for `COc1cccc(CNc2ncnc3c2nnn3C)c1`, inactive: 3.44%.

As for `CNC(=O)C1CCC(Cn2c(=O)c3sccc3n(CC(=O)N3CCCC3)c2=O)CC1` (stereo unspecified), the activation was inactive: -15.2%. The result for `Cc1cccc2cc(CN(C(=O)c3cccc(Cl)c3)c3ccccc3)c(=O)[nH]c12` reads inactive: -2.45%; that for `COc1cccc(C2CC(=O)Nc3c2c(=O)[nH]c2ncnn32)c1OC` (stereo unspecified), inactive: 12.1%. Next, `CCc1nc(N)nc(N)c1-c1ccc(Cl)cc1`: inactive: 2.09%; `O=C(C1CCN(S(=O)(=O)c2ccc(Br)s2)CC1)N1CCN(c2ccc(F)cc2)CC1`: inactive: -4.52%. For the compound `COc1ccccc1C(=O)Nc1cccc(OCc2cc(=O)n3c4c(sc3n2)CCCC4)c1`, the activation was inactive: -2.01%. Next, `COc1ccccc1Nc1nn2c(=O)c3ccc(C(=O)NC4CCC(C)CC4)cc3nc2s1` (stereo unspecified): inactive: -3.39%. As to `CCOc1ccc(C2C(C(N)=O)=C(C)Nc3nc(-c4ccc(OC)cc4)nn32)cc1` (stereo unspecified), the activation was inactive: -13.7%.

`O=C(NCC(c1ccc2c(c1)OCO2)N1CCN(c2ccccc2)CC1)C(=O)Nc1ccccc1` (stereo unspecified): the activation was inactive: 7.97%. The result for `CC(C)c1ccc(S(=O)(=O)c2nnn3c2nc(NCc2cccs2)c2sccc23)cc1` reads inactive: -14.9%; that for `CC(=O)Nc1ccc(OC(=O)c2ccccc2OC(C)=O)cc1`, inactive: -4.69%. For the compound `c1ccc2sc(SN3CCOCC3)nc2c1`, the activation was inactive: 4.23%.

In the case of `O=c1c2sc3ccccc3c2n(Cc2ccc(F)cc2)c(=O)n1Cc1ccco1`, the activation was inactive: -6.32%. Next, `Cc1cc2ccccc2n1CCNC(=O)c1ccccc1F`: inactive: 27.1%; `O=C(OCc1cc(=O)n2nc(C3CC3)sc2n1)c1ccc(NC(=O)c2ccccc2Cl)cc1`: inactive: -3.81%; `Cc1c(C(=O)Nc2ccccc2)sc2nc(-c3cc4ccccc4oc3=O)[nH]c(=O)c12`: inactive: -0.0092%. `CCc1ccc2oc(C(=O)Nc3cc(Cl)ccc3OC)cc(=O)c2c1`: the activation is inactive: -8.42%.

Take `O=C(Nc1cccc(C(=O)N2CCN(c3ccccc3)CC2)c1)c1nsc2ccccc12`: the activation is inactive: -4.28%.

`CCc1ccc(C2=C(C)C(N3CCC(C(=O)Nc4ccc(F)cc4)CC3)=NS2(=O)=O)cc1`: the activation is active: 74%.

With `Fc1ccc(Nc2nc(-c3cccc(Cl)c3)c3c(n2)-c2ccccc2OC3)cc1`, the activation was inactive: -0.453%. Next, `Cc1ccc(NC(=O)CCn2nc(-c3ccccc3)c3ccccc3c2=O)c(C)c1`: inactive: 29.3%; `O=C(Nc1ccc2nc(SCC(=O)N3CCCc4ccccc43)sc2c1)c1ccccc1F`: inactive: -8.75%; `Cc1ccc2oc(-c3cc(NC(=O)Cc4ccccc4)ccc3Cl)nc2c1`: active: 64.3%.

With `CN(C)c1ccc(C(CNC(=O)c2ccccc2Cl)N2CCc3ccccc32)cc1` (stereo unspecified), the activation is inactive: -35.9%.

With `CC(C)NCC(O)COc1ccc(CCOCC2CC2)cc1` (stereo unspecified), the activation is inactive: 4.29% and inactive: 0.537%. Next, `CCCCOc1ccc(C(=O)NCCS(=O)(=O)N2CCN(c3ccccc3OC)CC2)cc1`: inactive: 32.5%; `CCN(C(=O)CSc1nc2ccccc2nc1Cc1cccc(OC)c1)c1cccc(C)c1`: inactive: -36.4%; `O=C(NC1CC(=O)N(c2ccc(F)cc2)C1)c1ccc(S(=O)(=O)N2CCCC2)cc1` (stereo unspecified): inactive: -2.21%.

Regarding `O=C(COc1ccc(Cl)cc1)Nc1ccc(O)c(-c2nc3ccccc3s2)c1`, the activation is inactive: -8.99%.

Regarding `Cc1ccc(Cn2c(C(=O)O)c(CNCCc3cccs3)c3ccc(C)cc32)cc1`, the activation was inactive: -1.37%.

`COc1ccccc1NC(=O)c1ccc2[nH]c(C)cc(=O)c2c1`: the activation was inactive: 3%. Turning to `Cc1cc(Br)ccc1NC(=O)COc1cc(=O)n(C)c2ccccc12`, the activation was inactive: -3.84%. Next, `Cc1ccccc1NC(=O)c1c(C)oc2ccc(O)c(CN3CCCC(C)C3)c12` (stereo unspecified): inactive: -1.55%; `COc1cccc(CNC(=O)CSc2nc3ccccc3nc2Cc2ccccc2)c1`: inactive: -18.4%; `O=c1c2sc3ccccc3c2n(Cc2ccccc2F)c(=O)n1-c1ccccc1Cl`: inactive: -42.5%. Next, `Cc1nnc(N2CCC(C(=O)NCc3ccc(F)cc3)CC2)c2nn(-c3ccc(Cl)cc3)c(C)c12`: inactive: 0.0671%; `COc1cc2c(cc1OC)C(c1ccc(F)cc1)N(c1ccccc1)C(=O)C2` (stereo unspecified): inactive: -4.39%; `Cc1ccc2c(c1)cc(C(=O)NCc1ccc(F)cc1)n2C`: inactive: 10.2%. Consider `CCOCC(=O)Nc1ccc(-c2cn3c(C)csc3n2)cc1`, for which the activation is inactive: 6.59%.

On to `COc1ccccc1N1CCN(c2ccc(=O)n(CC(=O)O)n2)CC1`, for which the activation is inactive: -7.45%. The result for `COc1ccc(S(=O)(=O)NCC(c2ccc(N(C)C)cc2)N2CCOCC2)cc1` (stereo unspecified) reads inactive: -10.8%. For the compound `COc1ccc(-c2[nH]c3ccccc3c2SCCNC(=O)c2ccc(S(=O)(=O)N(C)C)cc2)cc1`, the activation is inactive: -24.3%. For the compound `COC(=O)c1cccc(Nc2nn3c(=O)c4cc5c(cc4nc3s2)OCO5)c1`, the activation is inactive: -2.28%. Regarding `COc1ccc(CNC(=O)CSc2ncc(S(=O)(=O)c3ccc(Br)cc3)c(=O)[nH]2)cc1`, the activation is inactive: -18.2%. Next, `COC(=O)Nc1nc2ccc(Sc3ccccc3)cc2[nH]1`: inactive: 11.5%; `CCCn1c(=O)[nH]c(=O)c2[nH]cnc21`: inactive: -10.9%. For `Cc1ccc2[nH]c3c(=O)n(CC(=O)NC(C)C)ncc3c2c1`, the activation was inactive: -7.99%.

In the case of `Cc1nn(-c2ccc(N3CCOCC3)nn2)c(C)c1CCC(=O)NCc1ccccc1F`, the activation is inactive: -24.4%. Take `O=C(CSC1=Nc2ccccc2N=C(c2ccc(F)cc2)C1)NCc1ccccc1Cl`: the activation is inactive: -41.8%. With `CCCCOc1ccc(CNC(=O)Cc2ccc(NC(=O)N3CCSc4ncccc43)cc2)cc1`, the activation is inactive: 5%.
